From the RNAGym collection of RNA variant scans (doi:10.1093/nar/gkz1192) come the findings set out here.

The source gives no read counts; variants with many changes may rest on few reads.

The chains are these.
B1: CPEB3 Ribozyme (parent)
chain: UAACAGGGGGCCACAGCAGAAGCGUUCACGUCGCAGCCCCUGUCAGAUUCUGGUGAAUCUGCGAAUUCUGCUGUAUAUCUC

In the data set the parent is B1. In words: self-cleavage, relative activity (ratio to wild type); higher = more cleavage; in vitro, sequencing. A digest of the protocol:
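Relative activity was defined as the cleaved/total read fraction for a variant divided by the same fraction for the unmutated ribozyme. CPEB3 self-cleaving ribozyme libraries were made by rounds of error-prone PCR, barcoded, and transcribed in vitro with T7 RNA polymerase for 5 hours at 37°C, and cleavage ran through transcription plus a 15 min DNase I step before EDTA. Illumina sequencing of template-switched reverse transcripts gave the reads, and DNA sequencing mapped the barcodes. Averages come from three batches, using variants with at least 5 reads.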
C32G A45U U48A A65C: the self-cleavage was 0.13.

In the case of U31C C39U U72A, the self-cleavage came to 0.7.

On to U31C C39G U69C U80A, for which the self-cleavage came out at 0.2.

U31A G36A A45U A56G: the self-cleavage was determined as 0.25.

As for U31A C50U A56G, the self-cleavage was 0.37.

Turning to U31C C44U A56U, the self-cleavage worked out at 0.12.

Take U31C C44U A56G: the self-cleavage amounted to 0.15.

As for U31A U66C U72C, the self-cleavage is 0.34.

Turning to U31C A56G U80A, the self-cleavage came out at 0.66.

As to U31A G42A A64U, the self-cleavage came out at 0.2.

In the case of U31G U51C U67C U72C, the self-cleavage is 0.2.

Take U31C U51G A75G: the self-cleavage is 0.52.

With U31A G36A A57G C62A U74C, the self-cleavage was found to be 0.06.

Turning to U31A U41C G73A U74A, the self-cleavage amounted to 1.1.

On to U31C U41C U58C, for which the self-cleavage amounted to 0.31.

Consider U31A U51A A56U, for which the self-cleavage came out at 0.15.

As for U31C U43C C71G, the self-cleavage was found to be 0.1.

In the case of U31C G42C U49C U66A, the self-cleavage came out at 0.09.

As for U31C A65G U66C, the self-cleavage amounted to 0.26.

For U31G U54C G63A, the self-cleavage worked out at 0.35.

Regarding U31C G53A A56G, the self-cleavage came to 0.94.

Take U31C U43A A77G U80C: the self-cleavage is 1.

As for U31C G36C G53A A56U A65U U80C, the self-cleavage came out at 0.05.

In the case of U31C A57G U67C, the self-cleavage was found to be 0.16.

With U31A U41A U60A U66A, the self-cleavage stood at 0.13.

Regarding U31C C40U A75G, the self-cleavage stood at 0.26.

Consider C32A C37A U41A U49C A65G, for which the self-cleavage is 0.11.

As for U31A C50U U58C, the self-cleavage came to 0.15.

As for U31C U41C U49A A57G, the self-cleavage is 0.19.

On to U31C C39A A47G U48A U78C, for which the self-cleavage was 0.3.

U31C A64G A75G: the self-cleavage is 0.29.

Consider U31A U41C A45G A56G, for which the self-cleavage turned out to be 0.26.

In the case of U31A U49A U66C, the self-cleavage was 0.16.

With U31C U41A A45G A56G G63C A64U, the self-cleavage turned out to be 0.06.

As to U31G C68G U80C, the self-cleavage turned out to be 0.14.

In the case of U31C C39A A45G A64G U67C U72A, the self-cleavage amounted to 0.05.

As for U31C U76G U78A, the self-cleavage came out at 0.48.

Turning to U31A U43C A64G G73A, the self-cleavage was found to be 0.43.

Take U31A U54C C62U A64U: the self-cleavage is 0.16.

U31C C39A G61A U80C: the self-cleavage came to 0.13.

U31C U43G A45G A57G G73C: the self-cleavage amounted to 0.41.

Turning to U31C A57G U72C, the self-cleavage is 0.72.

Regarding U31G C39A U80A, the self-cleavage is 0.1.

For the variant U31C A35G A45G U54G, the self-cleavage worked out at 1.14.

As for U31A U49C U60A, the self-cleavage stood at 0.43.

As for U31G U49A C79U, the self-cleavage came out at 0.46.

Regarding U31C U54C A64G, the self-cleavage worked out at 0.54.

With U31C U54A U72A, the self-cleavage worked out at 0.59.

For U31C G33U U48C, the self-cleavage was 0.14.

For U31C U41A U60C U78C, the self-cleavage was found to be 0.19.

U31C A64G U66C U74C U80A: the self-cleavage turned out to be 0.1.

As for U31A U51C U69G, the self-cleavage worked out at 0.25.

Turning to U31C U54G A64G U69G U80C, the self-cleavage came out at 0.1.

As for C32A U49A C59U, the self-cleavage was found to be 0.1.

As for U31C C40U U41G C50A, the self-cleavage amounted to 0.34.

Consider U31A U49A U51C, for which the self-cleavage came to 0.45.

On to U31A C38A U41C U54C, for which the self-cleavage was found to be 0.19.

Consider U31C G33A A47G A57G, for which the self-cleavage was determined as 0.08.

With U31C A57C U60A, the self-cleavage is 0.4.

As to U31A U69A U72C, the self-cleavage stood at 0.19.

Turning to U31C G46A A57G, the self-cleavage worked out at 0.18.

As for U31C G36A C38A U41C A64U, the self-cleavage was found to be 0.08.

Consider U31C C32G U72A, for which the self-cleavage was 0.19.

With U31C C62U C68U U78G, the self-cleavage was determined as 0.14.

For U31C A47G G52C, the self-cleavage came out at 0.61.

In the case of U31C U48C U49C A65U U78G U80A, the self-cleavage is 0.09.

Regarding U31A G36C U51A, the self-cleavage stood at 0.07.

For U31C U51G U78C, the self-cleavage amounted to 0.74.

U31C U48C U54C U72C: the self-cleavage was 0.16.

In the case of U31C A56U G70A, the self-cleavage turned out to be 0.17.

For C32A U43C A45G U54A A57U U67C U74A, the self-cleavage turned out to be 0.05.

As to U31C U41C U78C, the self-cleavage was found to be 0.87.

As for U31C U72C U80C, the self-cleavage stood at 1.09.

C32A A56G A64G: the self-cleavage was 0.14.

Regarding U31C A45G U78C, the self-cleavage came out at 0.36.

Turning to U31C U49C U76A, the self-cleavage was determined as 0.37.

As for U31C C38U U41A A47U, the self-cleavage was found to be 0.17.

Take U31A U41A U72C U74A U76C: the self-cleavage worked out at 0.14.

Take C32A G36U A64G: the self-cleavage was 0.26.

Regarding U31C G33A U41C A65G, the self-cleavage is 0.18.

On to U31C G52C C81U, for which the self-cleavage stood at 0.96.

On to U31A C40U U74C A75U, for which the self-cleavage amounted to 0.39.

As for U31G U51A A56G A77U, the self-cleavage is 0.4.

On to U31C U43A U60C, for which the self-cleavage amounted to 0.31.

As to U31C G61C A77U, the self-cleavage came out at 0.2.

For U31C A56C U69C, the self-cleavage was 0.29.

Regarding C32A G36A U72A, the self-cleavage is 0.06.

Turning to U31C U48G A56U, the self-cleavage was determined as 0.12.

For the variant U31A U49C C59U A64G U69A, the self-cleavage is 0.04.

With C32A G61C A64G C71A, the self-cleavage stood at 0.11.

Turning to U31C A45G A64U, the self-cleavage is 0.17.

For the variant U31A G61C U67C, the self-cleavage was found to be 0.09.

Regarding U31C U51A A56G U76C, the self-cleavage turned out to be 0.35.

With U31C U48C U54C A57G U60A A75G U80C, the self-cleavage turned out to be 0.19.

Turning to U31A U54C U78C, the self-cleavage amounted to 0.47.

Turning to U31C U41A U49C U78C, the self-cleavage stood at 0.15.

For U31A U60A A65G U67A, the self-cleavage was determined as 0.12.

Turning to C32A G53U U54C A65G, the self-cleavage amounted to 0.12.

For U31C G36U A45G A47G U69C, the self-cleavage turned out to be 0.03.

Regarding U31A U41C U48C U69C, the self-cleavage worked out at 0.11.

Regarding U31A U74C U76C, the self-cleavage was found to be 1.12.

U31C U43A A57G U78C: the self-cleavage came out at 0.58.

With U31C C68U U69G, the self-cleavage came to 0.12.

On to U31C U43A U48C U58A C79U, for which the self-cleavage was found to be 0.1.

For the variant U31G A35U U54C A64U, the self-cleavage was found to be 0.44.

In the case of U31A U67C U78A, the self-cleavage was 0.14.

As for U31C G42A A57U U72G, the self-cleavage came out at 0.12.

As for U31C A64G A65U U67C, the self-cleavage was found to be 0.14.

Consider U31G U69C U76A, for which the self-cleavage is 0.18.

Regarding U31C A57G C59G, the self-cleavage amounted to 0.12.

As for U31C U41C U69A U72A, the self-cleavage amounted to 0.3.

Regarding U31G A57C U69A, the self-cleavage is 0.2.

In the case of U31C C32U U41A A64C, the self-cleavage worked out at 0.07.

U31C U49A U51C: the self-cleavage came to 0.44.

On to U31C U41C U51C U78C, for which the self-cleavage amounted to 0.72.

As for U31C U49G A57G U69A, the self-cleavage is 0.32.

Consider U31C A35G A45G, for which the self-cleavage is 0.69.

With U31A U43C U51G A75G, the self-cleavage was found to be 0.09.

For U31C U43C C62G, the self-cleavage was 0.08.

As for U31C A56G U72A, the self-cleavage is 0.38.

U31C G42U U78C: the self-cleavage is 0.19.

Consider U31A U51C A64U A65G U72A, for which the self-cleavage came to 0.05.

As for U31C C34U A35C U58G A64G, the self-cleavage was found to be 0.05.

As to U31G U66C U72C, the self-cleavage is 0.12.

Turning to U31G C32U G46A, the self-cleavage is 0.08.

For the variant U31C U60C U66C U80C, the self-cleavage worked out at 0.2.

Consider C32A U54A U76C U80C, for which the self-cleavage turned out to be 0.29.

For U31C A45G U51A, the self-cleavage amounted to 0.46.

Regarding U31C A45G U51G, the self-cleavage amounted to 0.5.

With U31C G52C U69C, the self-cleavage turned out to be 0.29.

As to U31C A35G G46A A47G U49C U76A C79A, the self-cleavage was found to be 0.08.

In the case of U31C A35G C37U G63A U76C, the self-cleavage was found to be 1.18.

As to U31C A35U U54C A64U, the self-cleavage was found to be 0.13.

For C32A U54G C68U, the self-cleavage was 0.11.

As for U31C U41C U43A, the self-cleavage worked out at 0.55.

Regarding U31A C38A U58C, the self-cleavage was determined as 0.36.

U31C U41A U66A A75G: the self-cleavage amounted to 0.06.

Turning to U31C C37U U74C, the self-cleavage worked out at 0.95.

U31A U49C U60C U78A: the self-cleavage was found to be 0.05.

For U31C C38A U49C A56C G63U U72A, the self-cleavage was 0.05.

In the case of U31A U54A U58C A64G, the self-cleavage is 0.15.

On to U31A U41C U43C U80C, for which the self-cleavage came to 0.13.

As to U31C U54C U72C U78C, the self-cleavage amounted to 1.05.

Take U31G A45G A57G G61A: the self-cleavage is 0.45.

In the case of U31C U60C U67C, the self-cleavage was determined as 0.13.

As to U31A U41C G42A A45G U49C U66C U67A, the self-cleavage turned out to be 0.18.

Take U31C U60C A64U U74C: the self-cleavage was found to be 0.18.

Take U31C A45U U49C A65G U72C: the self-cleavage worked out at 0.15.

In the case of U31A U41A U72C A77G, the self-cleavage was found to be 0.06.

As to U31C A45G U49C U80C, the self-cleavage was 0.21.

For C32A G42U A45G A65U U66C, the self-cleavage turned out to be 0.19.

Regarding U31C A45U U80C, the self-cleavage worked out at 0.46.

U31C U41C A64G: the self-cleavage is 0.47.

Consider U31C G33A U76C, for which the self-cleavage came to 0.46.

Regarding C32A A77G U80A, the self-cleavage amounted to 0.19.

In the case of U31A U58C U80A, the self-cleavage is 0.38.

U31A U51C U66C: the self-cleavage was determined as 0.14.

Consider U31A C62U A65G, for which the self-cleavage stood at 0.26.

Regarding U31C C44A A64G, the self-cleavage was 0.24.

With C32A U41C U51A U72C U76G, the self-cleavage amounted to 0.07.

As to U31G A35G U41C, the self-cleavage is 1.04.

Take U31C U60C C71U: the self-cleavage stood at 0.29.

In the case of U31G A64G A65G, the self-cleavage came out at 0.15.

Consider U31C A45G U48C U54C A57G U67C, for which the self-cleavage was determined as 0.13.

U31C C39U C50A A56G: the self-cleavage was determined as 0.23.

For the variant U31A U49C U54A, the self-cleavage was found to be 0.13.

Consider U31C U49G U51C G53U U60C, for which the self-cleavage is 0.21.
